# Source: PubChem BioAssay AID2147 (National Center for Advancing Translational Sciences (NCATS), 2009)
# In all, about 230,000 compounds went through this assay and about 3,600 (1.6%) were called active. The shares of active, inactive and inconclusive entries below differ from those in the screen. Calls follow the shape of the dose curve; as a rule, active = well fitted inhibition curve with a large enough effect (not every such curve was filed as active); inconclusive = small, poorly fitted or top-dose-only effect, or another doubt; inactive = no such curve, though single readings can be large or run the other way. Potencies beside an inconclusive call are fits to weak or partial responses and may not hold up.
# Target: Lysine-specific demethylase 4E (Homo sapiens) (UniProt B2RXH2)
# Chain of UniProt B2RXH2 (B2RXH2 whole entry, looked up, the tested form may be a part): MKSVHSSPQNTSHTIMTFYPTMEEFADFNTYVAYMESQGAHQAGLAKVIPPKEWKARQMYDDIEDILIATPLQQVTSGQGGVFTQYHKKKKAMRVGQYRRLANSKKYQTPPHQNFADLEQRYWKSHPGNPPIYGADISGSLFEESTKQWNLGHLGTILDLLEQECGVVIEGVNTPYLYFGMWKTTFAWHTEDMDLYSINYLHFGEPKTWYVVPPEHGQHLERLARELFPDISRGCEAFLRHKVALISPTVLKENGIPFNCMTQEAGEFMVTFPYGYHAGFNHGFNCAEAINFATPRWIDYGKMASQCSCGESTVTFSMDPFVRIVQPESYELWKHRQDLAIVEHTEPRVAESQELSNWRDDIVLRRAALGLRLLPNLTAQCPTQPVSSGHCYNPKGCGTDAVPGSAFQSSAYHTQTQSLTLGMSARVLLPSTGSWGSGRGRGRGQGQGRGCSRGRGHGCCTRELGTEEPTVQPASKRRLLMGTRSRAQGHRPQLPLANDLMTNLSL
# Test: qHTS Assay for Inhibitors of Human Jumonji Domain Containing 2E (JMJD2E)
# Conditions: JMJD2E catalytic domain, FDH-coupled NADH fluorescence (FDH is formaldehyde dehydrogenase); series mostly up to 57.1 µM
# Also: nearly all actives have a fitted effect of over 50% in size.
# Potency is read from the fitted curve at half-maximal effect; tags tell the direction and shape of the fitted curve.
row,SMILES,Potency
1,c1cncc(CNc2ncnc3ccc(-c4cccnc4)cc23)c1,"inconclusive: 31.6 µM [inhibitor, partial curve]"
2,O=C(O)c1ccc2c(=O)n(-c3ccccc3F)c(=S)[nH]c2c1,"inconclusive: 25.1 µM [inhibitor, single point]"
3,COC(=O)c1c(NC(=O)C2COc3ccccc3O2)sc2c1CCN(Cc1ccccc1)C2 (configuration not stated),"inconclusive: 35.5 µM [inhibitor, single point]"
4,O=c1c2cc(Cl)ccc2[nH]c(=S)n1Cc1ccco1,inactive
5,COc1ccc2nc(NC(=O)c3cccs3)sc2c1,"inconclusive: 35.5 µM [inhibitor, single point]"
6,COc1ccc(NC2=CC(c3cccc(OC)c3)N(c3ccc(OC)cc3)C2=O)cc1 (configuration not stated),"inconclusive: 28.2 µM [inhibitor, single point]"
7,COCCn1c(-c2ccc(OC)cc2)nc2oc3cc(OC)ccc3c(=O)c2c1=O,"inconclusive: 28.2 µM [inhibitor, partial curve]"
8,Cc1cccc(Nc2nc3c(S(=O)(=O)c4ccccc4)nnn3c3ccccc23)c1C,"inconclusive: 3.16 µM [inhibitor, partial curve]"
9,CN(C)C(CNC(=O)CNC(=O)c1ccc(Br)cc1)c1ccccc1 (configuration not stated),inactive
10,CC(C)(C)NS(=O)(=O)c1ccc(OCC(=O)Nc2ccc3c(c2)OCCO3)cc1,inactive
11,CC(C)(C)C(=O)Nc1nc2c(s1)CN(Cc1ccccc1)CC2,"inconclusive: 31.6 µM [inhibitor, partial curve]"
12,Cc1sc(NC(=O)CCCC(=O)O)c(C#N)c1C,inactive
13,COc1c(O)cnn(-c2ccccc2)c1=O,inactive
14,Oc1ccc(-c2n[nH]c(=S)n2-c2ccc3c(c2)OCCO3)cc1,"inconclusive: 28.2 µM [inhibitor, partial curve]"
15,Cc1cccc(N2C(=O)CC(N3CCC(c4nc5ccccc5[nH]4)CC3)C2=O)c1 (configuration not stated),inactive
16,Oc1ccc(Br)cc1-c1nc2cnccn2c1NC1CCCC1,"inconclusive: 25.1 µM [inhibitor, partial curve]"
17,Cc1ncc(CO)c(/C=N/NC(=O)c2cc(O)c(O)c(O)c2)c1O,active: 12.6 µM
18,COc1cc2c(cc1NC(=O)Nc1cccc(C)c1)oc1ccccc12,"inconclusive: 25.1 µM [inhibitor, single point]"
19,CC(=O)c1sc(NC(=O)CCCOc2ccccc2C)nc1C,"inconclusive: 35.5 µM [inhibitor, single point]"
20,O=C(NCc1ccccc1Cl)C1CCN(C(=O)c2sccc2-n2cccc2)CC1,inactive
21,Cc1c2c(=O)n(-c3nc4ccccc4s3)nc-2cc(O)n1Cc1ccccc1,"inconclusive: 35.5 µM [inhibitor, single point]"
22,CCOC(=O)Cn1c(=O)oc2cc(S(=O)(=O)N3CCN(C(=O)c4ccco4)CC3)ccc21,inactive
23,O=S(=O)(NCCOCC(F)(F)F)c1ccc2oc3ccccc3c2c1,inactive
24,Cc1ccc(C)c(OCCn2cc(/C=C(\C#N)C(=O)NCC3CCCO3)c3ccccc32)c1 (configuration not stated),"inconclusive: 31.6 µM [inhibitor, single point]"

row,SMILES,Potency
1,O=C(CCC1CCCC1)Nc1cccn(Cc2ccccc2Br)c1=O,"inconclusive: 35.5 µM [inhibitor, single point]"
2,CCCNC1=C(N(C(C)=O)c2cccc(F)c2)C(=O)c2ccccc2C1=O,"inconclusive: 3.16 µM [inhibitor, full curve]"
3,Cc1ccc(N=c2ssnc2Cl)cc1,active: 11.2 µM
4,CC[n+]1c(-c2ccccc2)csc1Nc1c(C)n(C)n(-c2ccccc2)c1=O,inactive
5,CCc1nc2ccccc2[nH]c1=O,"inconclusive: 31.6 µM [inhibitor, partial curve]"
6,COc1ccc(-c2nc3cccc(C)n3c2NCC2CCCO2)cc1O (configuration not stated),"inconclusive: 6.31 µM [inhibitor, single point]"
7,CCOCCN1CCN(c2c(C)c(C)nc3cc(-c4cc(OC)cc(OC)c4)nn23)CC1,"inconclusive: 35.5 µM [inhibitor, single point]"
8,CCOC(=O)c1sc(NC(=O)c2cccnc2)c(C#N)c1C,inactive
9,CC(NS(=O)(=O)c1ccccc1)C(c1cccs1)N1CCN(c2ccccc2)CC1 (configuration not stated),"inconclusive: 39.8 µM [inhibitor, single point]"
10,COc1ccc2c3c([nH]c2c1)C1CC2C(CC(O)C(OC)C2CO)CN1CC3 (configuration not stated),"inconclusive: 35.5 µM [inhibitor, single point]"
11,CC1CCN(C(=O)COC(=O)c2cc(Cl)cc(Cl)c2N)CC1,"inconclusive: 31.6 µM [inhibitor, partial curve]"
12,CC(=O)c1ccc(OCCN2CCOCC2)cc1,"inconclusive: 25.1 µM [inhibitor, single point]"
13,O=C(CCN1CCN(Cc2ccccc2)CC1)Nc1ccc(OCc2ccccc2)cc1,inactive
14,COc1ccc(-n2c(N)c(C(=O)NCC3CCCO3)c3nc4ccccc4nc32)c(OC)c1 (configuration not stated),"inconclusive: 25.1 µM [inhibitor, partial curve]"
15,CCN1CCC2(CC1)C(C#N)=C(N)Oc1c2sc2nc(C)cc(C)c12,"inconclusive: 31.6 µM [inhibitor, partial curve]"
16,Cc1nn2c(Nc3ccccc3)c3c(nc2c1-c1ccccc1)CCC3,"inconclusive: 35.5 µM [inhibitor, partial curve]"
17,CCCCCn1c2c(c(=N)c3ccccc31)CCC2,"inconclusive: 25.1 µM [inhibitor, single point]"
18,CC1(C)CC(=O)C(C(c2ccncc2)C2C(=O)CC(C)(C)CC2=O)C(=O)C1,inactive
19,CN1CCN(c2nc(-c3ccncc3)nc3ccccc23)CC1,"inconclusive: 39.8 µM [inhibitor, single point]"
20,Cn1cccc1C(=O)NC(=O)COC(=O)Cc1coc2ccc3ccccc3c12,"inconclusive: 25.1 µM [inhibitor, partial curve]"
21,Brc1cc2c(cc1/C=N/Nc1nc(N3CCOCC3)nc(N3CCOCC3)n1)OCO2,inactive
22,C=CCNC(=O)C1COc2ccccc2O1 (configuration not stated),inactive
23,CCn1ccnc1CN(C)C(=O)CC1C(=O)NCCN1Cc1c(F)cccc1Cl (configuration not stated),inactive
